Here are results for 56 compounds from paper PMC4336329 (PLoS ONE, 2015).

Structures are written as SMILES. The campaign covered roughly 310,000 compounds. About 14,000 (4.5%) showed an effect of 50% or more. The effect is printed as a negative number. Some of the results follow.
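Also: peak tail current of the secondary pulse compared with the same well before compound.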

Chain of human ether-à-go-go-related gene (hERG) potassium channel (Q12809 whole entry, looked up): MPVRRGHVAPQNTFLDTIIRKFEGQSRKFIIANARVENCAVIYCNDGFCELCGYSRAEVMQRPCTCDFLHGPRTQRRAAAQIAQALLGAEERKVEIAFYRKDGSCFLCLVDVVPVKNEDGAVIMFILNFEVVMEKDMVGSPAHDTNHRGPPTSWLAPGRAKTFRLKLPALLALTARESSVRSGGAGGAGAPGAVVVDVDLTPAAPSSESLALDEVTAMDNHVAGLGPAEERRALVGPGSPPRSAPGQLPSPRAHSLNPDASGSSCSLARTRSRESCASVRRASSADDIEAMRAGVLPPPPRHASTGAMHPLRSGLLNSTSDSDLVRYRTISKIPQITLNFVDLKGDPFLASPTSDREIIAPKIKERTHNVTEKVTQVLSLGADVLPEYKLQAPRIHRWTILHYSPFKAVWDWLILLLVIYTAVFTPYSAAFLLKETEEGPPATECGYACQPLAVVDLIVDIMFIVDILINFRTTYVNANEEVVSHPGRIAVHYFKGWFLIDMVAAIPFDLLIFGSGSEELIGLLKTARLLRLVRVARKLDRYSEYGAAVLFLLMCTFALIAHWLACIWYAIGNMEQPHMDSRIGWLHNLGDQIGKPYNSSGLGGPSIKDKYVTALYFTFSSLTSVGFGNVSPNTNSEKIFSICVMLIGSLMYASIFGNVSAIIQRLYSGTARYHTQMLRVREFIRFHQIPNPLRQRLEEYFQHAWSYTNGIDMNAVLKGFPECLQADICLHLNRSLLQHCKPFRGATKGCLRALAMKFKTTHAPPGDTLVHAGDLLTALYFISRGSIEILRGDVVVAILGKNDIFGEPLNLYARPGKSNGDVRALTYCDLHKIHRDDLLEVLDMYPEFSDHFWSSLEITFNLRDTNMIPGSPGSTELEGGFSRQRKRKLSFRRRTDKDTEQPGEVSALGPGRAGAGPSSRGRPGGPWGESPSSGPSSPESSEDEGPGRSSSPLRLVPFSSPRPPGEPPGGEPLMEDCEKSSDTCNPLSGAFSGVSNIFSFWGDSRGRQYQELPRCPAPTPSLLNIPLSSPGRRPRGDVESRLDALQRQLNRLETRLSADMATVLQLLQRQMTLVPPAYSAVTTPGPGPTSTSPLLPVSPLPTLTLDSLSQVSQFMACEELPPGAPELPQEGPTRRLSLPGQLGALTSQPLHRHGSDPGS

The assay addresses human ether-à-go-go-related gene (hERG) potassium channel (human, UniProt Q12809). As to the kind of experiment: primary screen, population patch clamp on CHO cells stably expressing hERG.
Regarding `COC(=O)c1ccc(NC(=O)c2ccc3c(c2)C(=O)N(C)C3=O)cc1`, the “hERG current change (%, negative = inhibition) at 10uM” value came to 8.87%.

In the case of `O=C(COc1ccccc1)Nc1ccc(-c2ccc(N3CCOCC3)nn2)cc1`, the “hERG current change (%, negative = inhibition) at 10uM” value was -9.81%. The same measure for `CCOc1ccc(N2CC(C(=O)N3CCc4ccccc43)CC2=O)cc1` (centres unmarked): -47.6%; for `O=C(NCCc1nc(-c2ccccc2)no1)c1ccco1`: 3.25%. The same measure for `Cc1ccc(C23CC4CC(CC(C(=O)OCC(=O)NC5CCS(=O)(=O)C5)(C4)C2)C3)cc1` (centres unmarked): -4.71%; for `COc1cccc(Nc2cc(C)nc3nc(C)nn23)c1`: -12.8%; for `COc1ccc(C2C(C(C)=O)=C(O)C(=O)N2c2ccccn2)cc1` (centres unmarked): 15.5%. The same measure for `O=C(CCCn1c(=S)[nH]c2cc3c(cc2c1=O)OCO3)N1CCN(C2CCCCC2)CC1`: -36.7%.

On to `Cc1noc(/C=C/c2ccc(-c3ccccc3Cl)o2)c1[N+](=O)[O-]`, for which the “hERG current change (%, negative = inhibition) at 10uM” value is recorded as 3.66%. The same measure for `O=C(C1=NN(c2ccccc2)C2C(=O)N(c3ccc(Cl)cc3)C(=O)C12)c1ccccc1` (centres unmarked): 4.5%; for `Cc1cc(C)nc(SCC(=O)c2c(N)n(C)c(=O)n(C)c2=O)n1`: 5.44%; for `O=C(/C=C/c1ccccc1Cl)NCCc1ccc(F)cc1`: -1.24%.

`CN(CC(=O)Nc1ccc(Cl)cc1)C(=O)c1cccc(S(=O)(=O)N(C)C)c1`: the “hERG current change (%, negative = inhibition) at 10uM” value is -8.91%. As to `COc1ccc(-n2c(=O)c(CCC(=O)N3CCC(C)CC3)nc3ccccc32)cc1`, the “hERG current change (%, negative = inhibition) at 10uM” value is -14.1%.

On to `CCOc1ccccc1N(CC(=O)N1CCOCC1)S(=O)(=O)c1ccccc1`, for which the “hERG current change (%, negative = inhibition) at 10uM” value is recorded as -4.79%. As for `O=C(N/N=C1\CCCc2ccccc21)c1ccc([N+](=O)[O-])cc1`, the figure is -15.3%; as for `CN(c1ccccc1)S(=O)(=O)c1ccc(NC(=O)c2cccs2)cc1`, 17.9%; as for `CCOc1ccc(CN2CCC(C(=O)Nc3cccc(-c4ccn[nH]4)c3)CC2)cc1Cl`, -62.3%. As to `Cc1ccsc1/C=N/NC(=O)c1cc(-c2ccncc2)nc2ccccc12`, the “hERG current change (%, negative = inhibition) at 10uM” value is -13.3%. The same measure for `COc1ccc(N2CCN(C3CCCN(C(=O)CN4CCCCC4=O)C3)CC2)cc1` (centres unmarked): 14.2%; for `N#C/C(=C\c1ccc[nH]1)C(=O)c1ccccc1`: 28.3%; for `CNC(=O)c1cccc2nc3ccccc3nc12`: 9.6%.

Regarding `CNC(=S)NNC(=O)c1ccc(N(C)C)cc1`, the “hERG current change (%, negative = inhibition) at 10uM” value was determined as 0.516%. As for `COc1cccc(C(O)C2OC(=O)c3ccccc32)c1OC` (centres unmarked), the figure is 10.5%; as for `Cc1[nH]c2ccc(C(=O)NCC(C)(C)N3CCOCC3)cc2c1C`, -7.68%; as for `CCc1ccc(-c2nc(CN3CCC(C(=O)NCc4ccco4)CC3)c(C)o2)cc1`, -66.3%.

Take `COc1cccc(CN2CCNC(=O)C2CC(=O)NCCCn2ccnc2)c1` (centres unmarked): the “hERG current change (%, negative = inhibition) at 10uM” value came out at 37.2%. Regarding `O=C(COc1ccccc1C(=O)NCc1ccccn1)Nc1ccc(Br)cc1`, the “hERG current change (%, negative = inhibition) at 10uM” value is 12%. As for `CCS(=O)(=O)N1CCC(c2nc(-c3ccc(C(F)(F)F)cc3)no2)CC1`, the figure is -6.29%; as for `COc1ccc(C(=O)CSc2nnn(-c3cccc(NC(C)=O)c3)n2)cc1`, -4.13%; as for `Cc1ccccc1-n1c(Cn2c(=O)sc3ccccc32)nnc1SC(C)C`, 1.46%. The same measure for `Cn1ncc(Br)c1C(=O)NCc1cccs1`: -4.62%; for `CCN(CC)CCNC(=O)c1cccc(NC(=O)C(=O)c2ccccc2NC(C)=O)c1`: 10.1%.

Consider `CSc1ccccc1C(=O)Nc1ccc(C)c(C)c1`, for which the “hERG current change (%, negative = inhibition) at 10uM” value is given as 5.72%. As for `O=C(CCNS(=O)(=O)c1ccc(Br)cc1)N1CCN(c2ccccc2O)CC1`, the figure is -36.8%; as for `Cc1ccc(S(=O)(=O)N2CCCC(N3CCOCC3)C2)cc1Cl` (centres unmarked), 9.65%; as for `COc1ccc(CC(=O)NC(C)c2nnc(SCCC(=O)Nc3ccccc3)n2C)cc1` (centres unmarked), 23.5%.

On to `COc1cc(C2CC(=O)N(c3ccc(C)cc3)C(=O)C2)cc(OC)c1OC`, for which the “hERG current change (%, negative = inhibition) at 10uM” value stood at 16.6%. As for `O=C(NCCCn1ccnc1)c1ccc(C(F)(F)F)cc1`, the figure is -10.8%. As for `COc1cc(/C=C2/C(=O)NC(=O)N(c3ccccc3)C2=O)ccc1O`, the figure is -0.0161%; as for `CC(C)(CSc1ccccn1)NS(=O)(=O)c1ccc(Cl)cc1`, -15.4%. The same measure for `COc1ccc(-c2cc(N)n(S(=O)(=O)Cc3ccccc3)n2)c(OC)c1`: -12.8%; for `CC(=O)c1ccc(NC(=O)Cn2cnc(S(=O)(=O)N3CCC(C)CC3)c2)cc1`: 21.4%. As to `COC(=O)c1cc(=O)n(CCc2ccc(OC)c(OC)c2)c(=Nc2ccc(F)c(Cl)c2)s1`, the “hERG current change (%, negative = inhibition) at 10uM” value is -3.78%. As for `Cc1cc(Cl)ccc1NC(=S)NCc1cccs1`, the figure is 5.68%; as for `Cc1[nH]c(=O)[nH]c(=O)c1S(=O)(=O)Nc1ccc(F)cc1F`, 11.8%. As for `CN(C)CP(=O)(Nc1ccccc1)N(C)C` (centres unmarked), the figure is 25.8%.

Regarding `Cc1ccc(S(=O)(=O)c2nc(-c3ccco3)oc2SCC(N)=O)cc1`, the “hERG current change (%, negative = inhibition) at 10uM” value is listed as -16.6%.

For `Cc1ccccc1NC(=O)CN1C(=O)CSc2ccc(S(=O)(=O)N3CCCCC3)cc21`, the “hERG current change (%, negative = inhibition) at 10uM” value stood at 12.2%.

In the case of `CCOC(=O)C1=C(C)N=C2SC(C)C(=O)N2C1c1ccc(OC(C)=O)c(OCC)c1` (centres unmarked), the “hERG current change (%, negative = inhibition) at 10uM” value is listed as 6.67%. As for `COc1ccc2nc(NC(=O)C(NS(=O)(=O)c3cccs3)C(C)C)sc2c1` (centres unmarked), the figure is 8.73%; as for `O=c1cc(CNc2cc(Cl)ccc2Cl)nc2sccn12`, 9.99%. As for `COc1ccc(NC(C)=O)cc1NC(=O)CN1CCN(c2ccccn2)CC1`, the figure is 10.3%. The same measure for `NC1=NC[C@H](Cc2ccc(O)cc2)N1CCc1cc(C(F)(F)F)cc(C(F)(F)F)c1`: 6.86%; for `COc1ccc2c(c1)c(C(=O)CN1CCCCC1)c(C)n2C`: 4.9%; for `O=C1C2C3CC(C(Br)C3Br)C2C(=O)N1c1ccccn1` (centres unmarked): 5.5%.
